# Results reported in the supplement of paper PMC8728848.
# The list shows a part of the results.
# Experiments:
# Experiment in all cases: glycan array binding signal (z-score within array); higher = stronger binding
# Conditions in all cases: glycan notation: IUPAC condensed, linker removed
# [1] = target: Gal(b1-4)GlcNAc(b1-2)[Gal(b1-4)GlcNAc(b1-6)]Man(a1-6)[Gal(b1-4)GlcNAc(b1-2)Man(a1-3)]Man(b1-4)GlcNAc(b1-4)[Fuc(a1-6)]GlcNAc
# In short: (§1)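 Arrays were curated from the Consortium for Functional Glycomics database, 3228 in total, and kept only where the protein sequence was available. Binding is expressed as a within-array Z-score. This score was averaged across arrays of the same protein sequence at different concentrations or buffers and across linkers, and negative values can be read as non-binding.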
# [2] = target: Gal(b1-4)GlcNAc(b1-2)[Gal(b1-4)GlcNAc(b1-6)]Man(a1-6)[GlcNAc(b1-4)][Gal(b1-4)GlcNAc(b1-2)Man(a1-3)]Man(b1-4)GlcNAc(b1-4)GlcNAc
# In short: as §1
# [3] = target: Gal(b1-4)GlcNAc(b1-2)[Gal(b1-4)GlcNAc(b1-6)]Man(a1-6)[GlcNAc(b1-4)][Gal(b1-4)GlcNAc(b1-2)[Gal(b1-4)GlcNAc(b1-4)]Man(a1-3)]Man(b1-4)GlcNAc(b1-4)[Fuc(a1-6)]GlcNAc
# In short: as §1
# [4] = target: Gal(b1-4)GlcNAc(b1-3)Gal(b1-3)GalNAc
# In short: as §1
# [5] = target: Gal(b1-4)GlcNAc(b1-3)Gal(b1-3)GlcNAc
# In short: as §1
# [6] = target: Gal(b1-4)GlcNAc(b1-3)Gal(b1-4)Glc
# In short: as §1
# [7] = target: Gal(b1-4)GlcNAc(b1-3)Gal(b1-4)GlcNAc
# In short: as §1
# [8] = target: Gal(b1-4)GlcNAc(b1-3)Gal(b1-4)GlcNAc(b1-2)Man(a1-3)[Gal(b1-4)GlcNAc(b1-3)Gal(b1-4)GlcNAc(b1-2)Man(a1-6)]Man(b1-4)GlcNAc(b1-4)GlcNAc
# In short: as §1
# [9] = target: Gal(b1-4)GlcNAc(b1-3)Gal(b1-4)GlcNAc(b1-2)Man(a1-3)[Gal(b1-4)GlcNAc(b1-3)Gal(b1-4)GlcNAc(b1-2)Man(a1-6)]Man(b1-4)GlcNAc(b1-4)[Fuc(a1-6)]GlcNAc
# In short: as §1
# [10] = target: Gal(b1-4)GlcNAc(b1-3)Gal(b1-4)GlcNAc(b1-2)[Gal(b1-4)GlcNAc(b1-3)Gal(b1-4)GlcNAc(b1-6)]Man(a1-6)[Gal(b1-4)GlcNAc(b1-3)Gal(b1-4)GlcNAc(b1-2)Man(a1-3)]Man(b1-4)GlcNAc(b1-4)GlcNAc
# In short: as §1
# [11] = target: Gal(b1-4)GlcNAc(b1-3)Gal(b1-4)GlcNAc(b1-2)[Gal(b1-4)GlcNAc(b1-3)Gal(b1-4)GlcNAc(b1-6)]Man(a1-6)[Gal(b1-4)GlcNAc(b1-3)Gal(b1-4)GlcNAc(b1-2)Man(a1-3)]Man(b1-4)GlcNAc(b1-4)[Fuc(a1-6)]GlcNAc
# In short: as §1
# [12] = target: Gal(b1-4)GlcNAc(b1-3)Gal(b1-4)GlcNAc(b1-3)Gal(b1-4)GlcNAc
# In short: as §1
# [13] = target: Gal(b1-4)GlcNAc(b1-3)Gal(b1-4)GlcNAc(b1-3)Gal(b1-4)GlcNAc(b1-2)Man(a1-3)[Gal(b1-4)GlcNAc(b1-3)Gal(b1-4)GlcNAc(b1-3)Gal(b1-4)GlcNAc(b1-2)Man(a1-6)]Man(b1-4)GlcNAc(b1-4)GlcNAc
# In short: as §1
# [14] = target: Gal(b1-4)GlcNAc(b1-3)Gal(b1-4)GlcNAc(b1-3)Gal(b1-4)GlcNAc(b1-2)Man(a1-3)[Gal(b1-4)GlcNAc(b1-3)Gal(b1-4)GlcNAc(b1-3)Gal(b1-4)GlcNAc(b1-2)Man(a1-6)]Man(b1-4)GlcNAc(b1-4)[Fuc(a1-6)]GlcNAc
# In short: as §1
# [15] = target: Gal(b1-4)GlcNAc(b1-3)Gal(b1-4)GlcNAc(b1-3)Gal(b1-4)GlcNAc(b1-2)[Gal(b1-4)GlcNAc(b1-3)Gal(b1-4)GlcNAc(b1-3)Gal(b1-4)GlcNAc(b1-6)]Man(a1-6)[Gal(b1-4)GlcNAc(b1-3)Gal(b1-4)GlcNAc(b1-3)Gal(b1-4)GlcNAc(b1-2)Man(a1-3)]Man(b1-4)GlcNAc(b1-4)[Fuc(a1-6)]GlcNAc
# In short: as §1
# [16] = target: Gal(b1-4)GlcNAc(b1-3)Gal(b1-4)GlcNAc(b1-3)Gal(b1-4)GlcNAc(b1-3)Gal(b1-4)GlcNAc(b1-2)Man(a1-3)[Gal(b1-4)GlcNAc(b1-3)Gal(b1-4)GlcNAc(b1-3)Gal(b1-4)GlcNAc(b1-3)Gal(b1-4)GlcNAc(b1-2)Man(a1-6)]Man(b1-4)GlcNAc(b1-4)GlcNAc
# In short: as §1
# [17] = target: Gal(b1-4)GlcNAc(b1-3)Gal(b1-4)GlcNAc(b1-3)Gal(b1-4)GlcNAc(b1-3)Gal(b1-4)GlcNAc(b1-2)Man(a1-3)[Gal(b1-4)GlcNAc(b1-3)Gal(b1-4)GlcNAc(b1-3)Gal(b1-4)GlcNAc(b1-3)Gal(b1-4)GlcNAc(b1-2)Man(a1-6)]Man(b1-4)GlcNAc(b1-4)[Fuc(a1-6)]GlcNAc
# In short: as §1
# [18] = target: Gal(b1-4)GlcNAc(b1-3)Gal(b1-4)GlcNAc(b1-3)Gal(b1-4)GlcNAc(b1-3)Gal(b1-4)GlcNAc(b1-2)[Gal(b1-4)GlcNAc(b1-3)Gal(b1-4)GlcNAc(b1-3)Gal(b1-4)GlcNAc(b1-3)Gal(b1-4)GlcNAc(b1-6)]Man(a1-6)[Gal(b1-4)GlcNAc(b1-3)Gal(b1-4)GlcNAc(b1-3)Gal(b1-4)GlcNAc(b1-3)Gal(b1-4)GlcNAc(b1-2)Man(a1-3)]Man(b1-4)GlcNAc(b1-4)[Fuc(a1-6)]GlcNAc
# In short: as §1
# [19] = target: Gal(b1-4)GlcNAc(b1-3)Gal(b1-4)GlcNAc(b1-3)Gal(b1-4)GlcNAc(b1-3)Gal(b1-4)GlcNAc(b1-3)Gal(b1-4)GlcNAc(b1-2)Man(a1-3)[Gal(b1-4)GlcNAc(b1-3)Gal(b1-4)GlcNAc(b1-3)Gal(b1-4)GlcNAc(b1-3)Gal(b1-4)GlcNAc(b1-3)Gal(b1-4)GlcNAc(b1-2)Man(a1-6)]Man(b1-4)GlcNAc(b1-4)GlcNAc
# In short: as §1
# [20] = target: Gal(b1-4)GlcNAc(b1-3)Gal(b1-4)GlcNAc(b1-3)Gal(b1-4)GlcNAc(b1-3)Gal(b1-4)GlcNAc(b1-3)Gal(b1-4)GlcNAc(b1-2)Man(a1-3)[Gal(b1-4)GlcNAc(b1-3)Gal(b1-4)GlcNAc(b1-3)Gal(b1-4)GlcNAc(b1-3)Gal(b1-4)GlcNAc(b1-3)Gal(b1-4)GlcNAc(b1-2)Man(a1-6)]Man(b1-4)GlcNAc(b1-4)[Fuc(a1-6)]GlcNAc
# In short: as §1
# [21] = target: Gal(b1-4)GlcNAc(b1-3)Gal(b1-4)GlcNAc(b1-3)Gal(b1-4)GlcNAc(b1-3)Gal(b1-4)GlcNAc(b1-3)Gal(b1-4)GlcNAc(b1-2)[Gal(b1-4)GlcNAc(b1-3)Gal(b1-4)GlcNAc(b1-3)Gal(b1-4)GlcNAc(b1-3)Gal(b1-4)GlcNAc(b1-3)Gal(b1-4)GlcNAc(b1-6)]Man(a1-6)[Gal(b1-4)GlcNAc(b1-3)Gal(b1-4)GlcNAc(b1-3)Gal(b1-4)GlcNAc(b1-3)Gal(b1-4)GlcNAc(b1-3)Gal(b1-4)GlcNAc(b1-2)Man(a1-3)]Man(b1-4)GlcNAc(b1-4)[Fuc(a1-6)]GlcNAc
# In short: as §1
# [22] = target: Gal(b1-4)GlcNAc(b1-3)Gal(b1-4)GlcNAc(b1-3)Gal(b1-4)GlcNAc(b1-3)Gal(b1-4)GlcNAc(b1-3)Gal(b1-4)GlcNAc(b1-3)Gal(b1-4)GlcNAc(b1-2)Man(a1-3)[Gal(b1-4)GlcNAc(b1-3)Gal(b1-4)GlcNAc(b1-3)Gal(b1-4)GlcNAc(b1-3)Gal(b1-4)GlcNAc(b1-3)Gal(b1-4)GlcNAc(b1-3)Gal(b1-4)GlcNAc(b1-2)Man(a1-6)]Man(b1-4)GlcNAc(b1-4)GlcNAc
# In short: as §1
# [23] = target: Gal(b1-4)GlcNAc(b1-3)Gal(b1-4)GlcNAc(b1-3)GalNAc
# In short: as §1
binder,measurement,setting,value
DC-ASGPR Long (Homo sapiens) (protein) MTRTYENFQYLENKVKVQGFKNGPLPLQSLLQRLRSGPCHLLLSLGLGLLLLVIICVVGFQNSKFQRDLVTLRTDFSNFTSNTVAEIQALTSQGSSLEETIASLKAEVEGFKQERQAGVSELQEHTTQKAHLGHCPHCPSVCVPVHSEMLLRVQQLVQDLKKLTCQVATLNNNASTEGTCCPVNWVEHQDSCYWFSHSGMSWAEAEKYCQLKNAHLVVINSREEQNFVQKYLGSAYTWMGLSDPEGAWKWVDGTDYATGFQNWKPGQPDDWQGHGLGGGEDCAHFHPDGGWNDDVCQRPYHWVCEAGLGQTSQESH,glycan array binding signal (z-score),[1],-0.406
same,glycan array binding signal (z-score),[2],-0.175
same,glycan array binding signal (z-score),[3],-0.521
same,glycan array binding signal (z-score),[4],-0.701
same,glycan array binding signal (z-score),[5],-0.172
same,glycan array binding signal (z-score),[6],-0.074
same,glycan array binding signal (z-score),[7],-0.223
same,glycan array binding signal (z-score),[8],0.7
same,glycan array binding signal (z-score),[9],-0.788
same,glycan array binding signal (z-score),[10],-0.054
same,glycan array binding signal (z-score),[11],-0.361
same,glycan array binding signal (z-score),[12],-0.307
same,glycan array binding signal (z-score),[13],0.095
same,glycan array binding signal (z-score),[14],-0.492
same,glycan array binding signal (z-score),[15],0.493
same,glycan array binding signal (z-score),[16],0.263
same,glycan array binding signal (z-score),[17],-0.462
same,glycan array binding signal (z-score),[18],0.646
same,glycan array binding signal (z-score),[19],1
same,glycan array binding signal (z-score),[20],-0.525
same,glycan array binding signal (z-score),[21],0.862
same,glycan array binding signal (z-score),[22],-0.269
same,glycan array binding signal (z-score),[23],-0.133
